# In all, about 300,000 compounds went through this assay and about 22,000 (7.3%) were called active. This list was built around the results that the source calls inconclusive (neither active nor inactive); the mix of calls is not that of the screen. No stated cut-off is given here; in the data, active means activity score below about -60%; inconclusive means mostly about -28% to -61%; inactive means positive scores.
# Assay: Activators via SNCA 5'UTR binding, MLPCN (AID 1814)
# Conditions: alpha-synuclein 5'UTR reporter, activators screen; active compounds read low; tested at 7.5 µM
row,Compound,activity score
1,COc1cc(C2NC(=S)NC(O)(C(F)(F)F)C2C(=O)c2cccs2)cc(OC)c1O (centres undefined),active: -95.1%
2,CCOc1ccc(NC(=O)CC2C(=O)N(c3ccccc3)C(=O)N2Cc2ccccn2)cc1 (centres undefined),inconclusive: -48.4%
3,O=C(NC(=S)N1CCc2ccccc21)c1ccccc1,inconclusive: -42.1%
4,CCCCCN=C(N)N/N=C/c1c[nH]c2ccc(OC)cc12,inactive: 108%
5,CCn1nnc2sc3c(c2c1=O)CCC(C)C3 (centres undefined),inconclusive: -56.5%
6,Cc1ccc(Nc2nc(C)cc(C)n2)c(Br)c1,inconclusive: -38.8%
7,CCOc1ccc(CN2CCC(C(=O)Nc3cccc(-c4ccn[nH]4)c3)CC2)cc1Cl,inconclusive: -51.1%
8,Cc1cccc2cc3c(N)c(C(=O)N4CCc5ccccc54)sc3nc12,inconclusive: -56.5%
9,O=C(NC1C=CS(=O)(=O)C1)c1sc2ccccc2c1Cl (centres undefined),inconclusive: -58.1%
10,Cc1ccc(C(=O)O/N=C(\N)c2ccccn2)c(Cl)c1,inactive: 108%
11,O=C(Nc1ccc(N2CCOCC2)cc1)c1cc(F)c(F)cc1Cl,inconclusive: -51.7%
12,COC(=O)c1cc(S(=O)(=O)N(Cc2ccccc2)C(C)(C)C)c[nH]1,inconclusive: -41.7%
13,COc1cc(C=C(c2nc3ccccc3s2)c2nc3ccccc3s2)cc(OC)c1O,active: -98%
14,Cc1ccc2nc(-c3ccccc3)cc(C(=O)N3CCc4ccccc4C3)c2c1,inconclusive: -50.7%
15,Cc1ccc(NC(=S)NC(=O)c2ccc(F)cc2)cc1S(=O)(=O)Nc1cccc(Cl)c1,inactive: 81.3%
16,O=C(O)c1ccc(N/N=C/c2ccc(C(F)(F)F)cc2)cc1,inactive: 60.8%
17,Cc1ccc(O)c(CNc2nc3ccccc3n2C)c1,inconclusive: -61%
18,C/C(=N\Nc1nc(-c2ccccn2)nc2ccccc12)c1ccc(F)cc1,inactive: 75.3%
19,O=C(Cc1ccc(Cl)cc1)Nc1cc(Cl)ccn1,inconclusive: -61.5%
20,NC(=O)c1c(NC(=O)CSc2nnc(-c3ccco3)n2N)sc2c1CCCC2,inconclusive: -56.4%
21,COC(c1ccccc1)c1nnc(CCC(=O)N(C)C(C2CC2)C2CC2)o1 (centres undefined),active: -147%
22,O=C(NCCCN1CCOCC1)c1cc(-c2ccccc2F)no1,active: -121%
23,Cc1ccc(-c2cn3nc(C)c(C)nc3n2)cc1,inactive: 72.7%
24,Cc1c(C(=O)N2CCCC2)oc2ccc(Br)cc12,inconclusive: -57.1%

row,Compound,activity score
1,Cc1cc(C(=O)NCc2ccccc2Br)no1,inconclusive: -44.2%
2,Oc1ccc(/C=C/c2ccc3ccccc3n2)cc1,inactive: 89.7%
3,O=C(CSc1nnc(SCc2ccc(Cl)cc2)s1)N/N=C/c1c(Cl)cccc1Cl,active: -68.8%
4,S=c1[nH]ncn1/N=C/c1ccc(N2CCOCC2)cc1,inconclusive: -55.7%
5,CNc1oc(/C=C/c2cccc(OC)c2)nc1C#N,active: -180%
6,O=[N+]([O-])c1c(NCCO)cc(Sc2nc3ccccc3s2)c2nonc12,inconclusive: -41.4%
7,c1ccc(-c2noc(-c3ccc4c(c3)OCO4)n2)nc1,inactive: 90.6%
8,COc1cccc(/C=N/Nc2ncnc3c2ncn3Cc2ccccc2)c1O,inactive: 102%
9,CC(C)(C)n1ncc2c(=O)n(CC(=O)NCc3ccccc3)cnc21,inconclusive: -57.7%
10,CCOC(=O)COc1c(Cl)cc(C2NC(=S)NC(c3ccccc3)=C2C(C)=O)cc1OC (centres undefined),inconclusive: -46.7%
11,Cc1cc(-c2nnc(CCC(=O)NC(c3ccccc3)c3ccccc3)o2)no1,inconclusive: -54.4%
12,CCC(=O)N=c1sc2cc(F)cc(F)c2n1C,inconclusive: -42.6%
13,CC(=O)c1c(C)[nH]c(C(=O)OCc2cccc(Cl)c2)c1C,inconclusive: -57.7%
14,COc1ccccc1C1c2[nH]c3ccccc3c2CCN1Cc1cnc(C)s1 (centres undefined),inconclusive: -48.8%
15,CC(OC(=O)c1ccc(F)cc1)C(=O)Nc1nc(-c2cccc([N+](=O)[O-])c2)cs1 (centres undefined),inconclusive: -50%
16,C#CC(=O)N(c1cccc(OC)c1)C(C(=O)NC1CCCC1)c1cccs1 (centres undefined),inactive: 92.3%
17,Cc1nc2ccc(NC(=O)N3CCSCC3)cc2s1,inconclusive: -50.8%
18,Cc1cccc(OCCSc2nc(N)cc(N)n2)c1,inconclusive: -54%
19,N#Cc1cc2c(nc1SCC(=O)Nc1sc3c(c1C#N)CCC3)CCC2,active: -141%
20,c1cc2c(cc1C1CCCCC1)c1c3n2CCCNC3CCC1 (centres undefined),inactive: 86.7%
21,Cc1nc2nc(SCC(=O)c3ccccc3)[nH]c2cc1Br,inconclusive: -60.5%
22,CCOc1ccc(C(=O)NCC(=O)OCC(=O)N2CCCCC2)cc1,inconclusive: -47%
23,Oc1[nH]c2ccccc2c1N=NC(=S)NCCc1ccccc1,inconclusive: -58.8%
24,O=c1c2ccccc2ncn1CCCSc1ccccc1,inconclusive: -49.8%

row,Compound,activity score
1,O=C(NCCCN1CCOCC1)C(=O)N/N=C/c1c2ccccc2cc2ccccc12,inactive: 66.7%
2,COc1ccc(C(=O)NC(=S)N2CCOCC2)cc1Br,inconclusive: -59.3%
3,Cc1cccc(C2c3[nH]c4ccccc4c3CCN2Cc2cnn(-c3ccc(F)cc3)c2)n1 (centres undefined),inconclusive: -45.1%
4,Cn1c(C(=O)NCCN2CCOCC2)cc2sccc21,inconclusive: -57%
5,COC(=O)c1cc2c(ccn2-c2ccc(F)cc2)n1Cc1ccc(OC)cc1,inconclusive: -49.6%
6,COc1ccc(NC(=O)c2cnc3n(c2=O)CCS3)cc1OC,inconclusive: -59.5%
7,CCOC(=O)Cc1csc(NC(=O)C(C)(C)C)n1,inconclusive: -57.4%
8,COC(=O)c1ccc(/C=N/Nc2nc(C)c(C)s2)cc1,active: -188%
9,O=C(c1ccc(Cl)cc1)N1CCn2c1nc1ccccc12,inconclusive: -61.4%
10,CC(C)CC[n+]1ccccc1/C=C/c1ccc(N(C)C)cc1,inactive: 79.1%
11,Nc1nc(Cl)nc2c1ncn2C1CC(O)C(CO)O1 (centres undefined),inactive: 87.1%
12,Cc1ccc(OCC(=O)c2cc(C)n(-c3ccccc3)c2C)c([N+](=O)[O-])n1,inactive: 67.9%
13,COc1ccc2c(=O)c3ccccc3oc2c1,active: -147%
14,O=C(CSc1cccc[n+]1[O-])Nc1cc2c(cc1Cl)C(=O)c1ccccc1C2=O,inconclusive: -38.8%
15,CC(C)C(=O)Nc1cccc(C(=O)Nc2ccc3c(c2)OCO3)c1,inconclusive: -56.8%
16,Cc1ccc(NC(=S)N(CCN(C)C)Cc2cc3cccc(C)c3[nH]c2=O)cc1,inconclusive: -60.1%
17,CCOC(=O)c1cnc(-n2nc(C)cc2C)nc1NNc1ncc(-c2ccccc2)cn1,inactive: 82.5%
18,Cc1ccc(NC2=NCC(=O)N2C2CCCC2)cc1C,inconclusive: -53.6%
19,CC(Oc1ccccc1)C(=O)Nc1nnc(C2CCCCC2)s1 (centres undefined),inconclusive: -52.4%
20,CCSc1nc(C2CC2)cc(-c2cccs2)c1C#N,inconclusive: -38.3%
21,CCS(=O)(=O)c1ncc(Cl)c(C(=O)Nc2ccc(S(=O)(=O)N3CCCC(C)C3)cc2)n1 (centres undefined),inactive: 72.2%
22,Cc1cc(N2CCN(Cc3cn(C)nc3-c3ccccc3F)CC2)cc(C)n1,inactive: 90.9%
23,Cc1cc(NC2CCCC2)n2nc(C)c(-c3ccccc3)c2n1,inconclusive: -57.1%
24,O=C1C(C=NCCN2CCOCC2)=C(O)c2ccccc21,inconclusive: -53.8%

row,Compound,activity score
1,COc1ccc(OC)c(Nc2cc(-c3ccccc3)nc(N)n2)c1,inactive: 67.8%
2,O=C(/C=C/c1cccc(F)c1)NCCCn1ccnc1,inconclusive: -33.5%
3,Clc1cccc(/C=N\Nc2nccs2)c1,active: -168%
4,COc1ccc(OC)c(-c2cc(C(=O)Nc3c(C)nn(Cc4ccccc4Cl)c3C)no2)c1,inactive: 58.5%
5,Cc1cccc(-c2nsc(SCC(=O)Nc3nccs3)n2)c1,inconclusive: -52.7%
6,CN1N=C2c3ccccc3CCCC2C1c1ccc(F)cc1 (centres undefined),inconclusive: -61.1%
7,Cc1ccc(/C=C2\SC(=S)N(CCCC(=O)NC3CCCC3)C2=O)cc1,inactive: 97.5%
8,CCC(C)C(=O)N1CCc2cc(-c3csc(N)n3)ccc21 (centres undefined),active: -172%
9,O=C(CSc1nnc(-c2cccnc2)o1)Nc1cccc(Cl)c1,active: -119%
10,Cc1ccc2cc3c(N)c(C(=O)N4CC(=O)Nc5ccccc54)sc3nc2c1,inactive: 82.1%
11,CCC(C(=O)NC1CCCCC1)n1c2ccccc2c2nc(=O)cc(C)n21 (centres undefined),inconclusive: -58.4%
12,Brc1ccc2c(c1)OCCOCCOc1cc(Br)ccc1OCCOCCOCCO2,inactive: 72.7%
13,COc1cc(NC(=O)c2ccc(-c3csc(C)n3)cc2)c(OC)cc1Cl,active: -64.4%
14,Cc1cc(C2=NNC(=NC3CC3)SC2)c(C)n1-c1ccccc1,inactive: 95.2%
15,O=C(O)c1cccc(N/N=C/c2ccc(F)c(F)c2)c1,inconclusive: -51.7%
16,CCOC(=O)c1c(O)c2cc(Cl)ccc2n(CC)c1=O,inconclusive: -53.1%
17,N#CC/C(N)=N/NC(=O)CCCNc1ncc(C(F)(F)F)cc1Cl,inconclusive: -49.7%
18,CCN1/C(=C/C(C)=C/c2sc3ccccc3[n+]2CC)Sc2ccccc21,inactive: 99.7%
19,COC(=O)c1ccc(C(=O)OC)c(NC(=S)N2CCN(c3ccccc3)CC2)c1,inconclusive: -29.2%
20,Cc1cc(OCC(=O)N2CCCCCC2)ccc1[N+](=O)[O-],active: -148%
21,CC(C)(O)[C@H]1Cc2cc3ccc(=O)oc3cc2O1,inconclusive: -56.5%
22,COC(=O)c1c(-c2ccccc2)csc1N1C(=O)Nc2ccccc2N1O,inconclusive: -33.6%

# Reference: PubChem BioAssay AID1814 (Broad Institute, 2009)
